{"source": "patent US12365651B2", "about": "“Use of pirfenidone and derivatives for modulation of B lymphocyte activity and organ protection from acute tissue damage” (Washington University, priority 2017, dated 2025)", "tested_on": "Rosa26-DT Mlc2v-Cre mice"}
{"smiles": "Cc1ccc(=O)n(-c2ccccc2)c1", "note": "[Pirfenidone, 5 methyl-1-phenyl-2-[H] pyridone]", "values": [{"measurement": "expression of CD86 on cardiac B lymphocytes", "setting": "0.5% pirfenidone chow, day 4 post-DTR treatment, animals with troponin>10", "value": "reduced"}, {"measurement": "Ly6C+ CD64low/− monocytes", "setting": "DT-injured hearts day 4, Pirfenidone chow vs normal chow, p=0.15", "value": "no significant differences"}, {"measurement": "Ly6G+ neutrophils", "setting": "DT-injured hearts day 4, Pirfenidone chow vs normal chow, p=0.27", "value": "no significant differences"}, {"measurement": "number of myocardial CD45+ cells", "setting": "DT-injured hearts day 4, Pirfenidone chow vs normal chow, p=0.8", "value": "no significant differences"}, {"measurement": "Ly6Clow/− CD64+ macrophages", "setting": "DT-injured hearts day 4, Pirfenidone chow vs normal chow, p=0.9", "value": "no significant differences"}, {"measurement": "percentage of MHC-IIlowCCR2low macrophage subset", "setting": "DT-injured hearts day 4, with vs without Pirfenidone, p=0.11", "value": "no significant difference"}, {"measurement": "percentage of MHC-IIlowCCR2high macrophage subset", "setting": "DT-injured hearts day 4, with vs without Pirfenidone, p=0.21", "value": "no significant difference"}, {"measurement": "percentage of MHC-IIhighCCR2high macrophage subset", "setting": "DT-injured hearts day 4, with vs without Pirfenidone, p=0.36", "value": "no significant difference"}, {"measurement": "percentage of MHC-IIhighCCR2low macrophage subset", "setting": "DT-injured hearts day 4, with vs without Pirfenidone, p=0.43", "value": "no significant difference"}, {"measurement": "subset of CD19+CD11b− cells", "setting": "DT-injury day 4, Pirfenidone vs control", "value": "significant (p=0.04) reduction"}, {"measurement": "CD19+ cells/mg of tissue", "setting": "DT-injury day 4, Pirfenidone vs control, p<0.01", "value": "significantly fewer"}, {"measurement": "number of myocardial CD19+CD86high B lymphocytes", "setting": "DT-injury model, day 4", "value": "significant (p<0.04) decrease"}, {"measurement": "survival", "setting": "Pirfenidone treated vs untreated DT-treated littermate controls, p=0.03", "value": "significantly improved"}, {"measurement": "extent of Evans Blue dye uptake", "setting": "day 4 post DT, Pirfenidone chow vs normal chow, p=0.26", "value": "no significant differences"}, {"measurement": "serum troponin levels", "setting": "day 4 post DT, Pirfenidone chow vs normal chow, p=0.34", "value": "no significant differences"}, {"measurement": "prevalence of cardiac myocyte apoptosis", "setting": "day 4 post DT, Pirfenidone chow vs normal chow, p=0.39", "value": "no significant differences"}, {"measurement": "reduction in the percentage of CD19+ myocardial B lymphocytes", "setting": "following DT-injury day 4, vs normal chow, p=0.02", "value": "> 3", "unit": "fold"}]}
